# ± gives the standard deviation of the averaged measurements. This is one part of the list.
# Test system: PfAP2-I AP2 domain 3 (GST-tagged)
# Assay: gcPBM binding intensity (ln(normalized median fluorescence intensity)); higher = stronger DNA binding
# In short: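 Binding intensity is the highest Masliner-normalised natural-log median intensity over replicate spots in either probe orientation. To obtain it, GST-tagged P. falciparum DNA-binding domains made in E. coli were incubated for 1 h on an Agilent 4 × 180k array of primer-extended double-stranded 36-bp intergenic genomic probes plus negative controls. Detection used Alexa488 anti-GST antibody with scanning at 488 nm.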
row,Sequence,gcPBM binding intensity (ln)
1,ATTTGTTCATTTGGTTGTACATAATTTATTTTTATA [XGTACX_site785],7.88 ± 0.63
2,TACATTAACGGATTATTTCTCAATACAACATCATTT [CACACA_negctrl_site981],7.5 ± 0.47
3,GTTTGTATGTCCAAATGTACATATGATTTTATGAAA [XGTACX_site6595],7.93 ± 0.4
4,AAAATTAAAAATTACTGTACGTATTAGAGAATAAAT [XGTACX_site2567],7.74 ± 0.5
5,AAAAAATATTGAAGTACACACATTATAAACTTTTTT [CACACA_site5029],7.75 ± 0.46
6,ACCTAATTCAAATACAGTACATATACAATATATATA [XGTACX_site2779],8.11 ± 0.79
7,AAAATATTAATTAATACATGCATATATATATATATA [TGCATGCA_site585],9.4 ± 0.61
8,TATATTGTATAAAAATGTACATGCAATAAATTTAGT [XGTACX_site5621],8.69 ± 0.45
9,TATATTATAATAAGACGTACAAGGATGTTAAAACTT [XGTACX_site5828],7.92 ± 0.57
10,TTAATTATGGACAGGGTGCACATGAATAATAATACC,11 ± 0.18
11,ATACTAAATGAACACACACACATATATATATATAAT [CACACA_site4232],8 ± 0.53
12,AACAGACATAGAAACACACATACATACATACATACA [CACACA_site2479],8.96 ± 0.45
13,AAATAAATATATAATACACACAAAAATATAAAATGG [CACACA_site5943],8.06 ± 0.53
14,TATAACTTTTTTATTACACACCTATGTAATATTATA [CACACA_site944],7.95 ± 0.3
15,ATGTTTTATATTTTTTTTTTGTTTGCTTGTTTCCTC [CACACA_negctrl_site870],7.78 ± 0.83
16,AAGGGAAATATTGAAACACACACGAACCCACGTATT [CACACA_site252],7.67 ± 1.1
17,TTATAATATTAATGTGCACACAATTAAAATATTATA [CACACA_site2046],10.6 ± 0.26
18,TACTGTGTTTTGGTTGTACACACGCTACATTATATA [CACACA_site8863],8.27 ± 0.59
19,TTCTTAAATGTAAATGTATATGTATTAAAAAGAGAA [TGCATGCA_negctrl_site597],7.87 ± 0.49
20,ATAGTATACAGACACACACACACACCCATATATATA [CACACA_site1736],8.25 ± 0.88
21,AGGATATAAATATTCACACACACATGGAGATATATA [CACACA_site6317],7.64 ± 0.5
22,TATACATTTATGTACACACACATATATGTATATTTA [CACACA_site2966],7.67 ± 0.37

row,Sequence,gcPBM binding intensity (ln)
1,AATAAATATCAATACACACACACAAAAGTGAATAAA [CACACA_site3763],7.67 ± 0.59
2,ACAATTTTATTTAAAGTGCATGTAAAATTAAAACTT,9.11 ± 0.3
3,AAAGGAAGAAAAAATAGTACATATATATATATATAA [XGTACX_site766],7.88 ± 0.4
4,GTTAAGGGTATATATACACACATATGTAATACATGA [CACACA_site5650],7.83 ± 0.6
5,TCCATCCACATATATGTACACACATATATATATATA [CACACA_site8970],9.31 ± 0.61
6,ACATGTGAAGGGAACATAAATTGGGGTTTTATATTG [XGTACX_negctrl_site508],7.95 ± 0.75
7,AAATTATAAATAATTTGTACATAAAAATTGGTAAAG [XGTACX_site5197],7.7 ± 0.64
8,GAATATAAAAAAGAATGTACTTGAACAGTCCTAAAA [XGTACX_site745],7.45 ± 0.75
9,TTTTGTTAGTTTTTTTTCTTATATTACATTTTCACG [CACACA_negctrl_site1466],7.78 ± 0.76
10,TTTTTTATATTAAATGAAGAATATACAAAATTTTAA [CACACA_negctrl_site558],7.62 ± 0.28
11,ATGTAGTCTCAAGACTGTACAAACAAGTAAATAAAA [XGTACX_site4120],7.76 ± 0.74
12,AAGGAGAAATAAATATTAAAAAATTTATATATATAT [CACACA_negctrl_site1801],9.01 ± 0.35
13,TTCTTTTTTAACAACAAAAAAAAAAAAAAAAAAAAA [TGCATGCA_negctrl_site87],8.26 ± 1
14,TAATATTGCAAATATAAAAAAAAATAAACCATATAT [XGTACX_negctrl_site458],8.17 ± 0.48
15,TTTTTTGCTTTCAACACACATACAATCTATATAATC [CACACA_site4125],8.01 ± 0.75
16,TAAACCTGTAGAGATGCATGCATTGTTAACATGGTG [TGCATGCA_site515],7.85 ± 0.76
17,AAAAAATTGACTAATGCACACAATTACATATATATA [CACACA_site1689],10.5 ± 0.44
18,AATTGTTCTATGATTTGTACACACTTTTTTTTAAAA [XGTACX_site5984],8.15 ± 0.52
19,ATTATAAATACACGCACACACACTTATATATATATA [CACACA_site5776],9.48 ± 0.31
20,CAATTTTTCTATCATTGTACTTTTATATAATAGTGT [XGTACX_site1810],7.79 ± 0.49
21,CATTATAAAAAATAAAAAAGAAATAATTGTATATGC [CACACA_negctrl_site478],7.77 ± 0.68
22,ATGAAATATATTATATGTACATATTTATTTTTTATA [XGTACX_site7319],7.59 ± 0.3

row,Sequence,gcPBM binding intensity (ln)
1,ATTTTTTACGTATAGTACAAAGTTTTATGATACATA [CACACA_negctrl_site965],7.62 ± 0.57
2,AAATAGTAAATAAGGGGTACAAAAAAAAAAAAAAAA [XGTACX_site8362],8.15 ± 0.37
3,AAATGCTAAAAATAGAGTACAGATAACGAAAAGTGT [XGTACX_site8830],8.38 ± 0.57
4,TTTTTATTTAATATTTTAAAAAAAAATCATTTTTAA [XGTACX_negctrl_site207],7.24 ± 0.52
5,TATATAGTAATATATACACACACTTGTCTTGTAAAA [CACACA_site990],7.62 ± 0.52
6,TTATAAAAATAATATCGTACAAATGATAAAGATTAA [XGTACX_site4893],7.67 ± 0.47
7,ACATATATATATATATATAATATTTTATATTTATTA [CACACA_negctrl_site713],7.97 ± 0.41
8,TGAATTCGTCAAAAGCGTACATATAATATCTTCTTG [XGTACX_site8842],7.79 ± 0.58
9,ATATTTTTTTATAAATGTACAAAAATAATATTGCAT [XGTACX_site7399],7.89 ± 0.39
10,AAAATAATGTTTATATGTACATATATATATATATAT [XGTACX_site8815],9.28 ± 0.37
11,CCATTTACCCTTGCCATGCACACTTTTTTATAGAAA [CACACA_site3505],8.79 ± 0.6
12,TATCTTATTTTAAAAGTGCATGGAAAGGGGTTTTTG,8.79 ± 0.3
13,TGTATAAGTGCCGTTATACACACGTTATATAAATAT [CACACA_site438],8.47 ± 0.34
14,TATATATACATATACACACACACACCCATATATATA [CACACA_site2246],8.37 ± 0.71
15,ATAAATTTATATACTTGTACATATATATATTACATA [XGTACX_site6697],7.92 ± 0.38
16,ACTATCATTTTTTTAACACACAAAAAAAATAAAATA [CACACA_site3519],8.08 ± 0.24
17,TTTTAGCACTTATTATAAGATATCAAAAAGATGGGT [XGTACX_negctrl_site325],8.76 ± 0.092
18,TTTGAAATAAAAAGGTGTACACTCGATTAATAAATA [XGTACX_site6943],8.07 ± 0.33
19,AAATAATATATGAATGCACACAGTAAAAATTAAAGA [CACACA_site2252],9.31 ± 0.22
20,AAAATTTCAATAAATACACACATATATATATATATT [CACACA_site1685],7.63 ± 0.45
21,AAGAATACACCACGCACACACACTTGAGAAAAAATA [CACACA_site3828],8.36 ± 0.29
22,AAGATTAATATTTTATGTACATATGTAATATATATG [XGTACX_site4367],7.8 ± 0.35

row,Sequence,gcPBM binding intensity (ln)
1,ATATTTTTATGATGTATCCAAGAAATGGAACTATAT [CACACA_negctrl_site1268],7.71 ± 0.35
2,ATTTTAGATATCCTGCGTACACAAATTGCTTTATTT [XGTACX_site7149],8.47 ± 0.61
3,ATATATACCTAAGACACACACATATAGATTTATATA [CACACA_site6498],7.84 ± 0.58
4,TTCTTTGTGGTATAGATACACACTATATTAATATGA [CACACA_site2150],8.19 ± 0.49
5,TTTAATAATATAATGTGTACTTAAAAATTTATATAT [XGTACX_site5821],7.86 ± 0.31
6,TCATAAATTAATAATACATGCATAATATTAAAATGT [TGCATGCA_site5],7.8 ± 0.51
7,AAAAATATATAAGAGAGTACATAAAATAAATTAATT [XGTACX_site1534],7.67 ± 0.69
8,TTTACATCCAAAAACTGTACACTTATTTTATAATTC [XGTACX_site5332],7.88 ± 0.34
9,ATATATATAATATGTAGTACTTTCCTCTCAAATCAT [XGTACX_site7766],8.18 ± 0.35
10,ATCAAAAATATAAAAAATATAAACAATTTATTATCA [CACACA_negctrl_site768],7.32 ± 0.47
11,AATAAGTAACAAAATACACACATATATATAATTATA [CACACA_site1837],7.66 ± 0.55
12,GAATCATATTTAAACACACATACATATATATATATA [CACACA_site3352],9.11 ± 0.48
13,AAAAAATACAAGAAATGTACTCAAGCATATATTAAT [XGTACX_site3325],7.81 ± 0.64
14,TTTTTACTATAATTAAAATTAACAAAAGAAAATGAT [GTGCAC_negctrl_site52],7.59 ± 0.57
15,TTCATTATTATTAACATACACACGTGTTATATACAC [CACACA_site4112],8.05 ± 0.54
16,TTCATTTTTTAAGCATCACACACGAAAGAACAAAGT [CACACA_site1122],8.31 ± 0.53
17,TTTCCAAATTGTTGACGGACACTCACGAATAGTTAT [XGTACX_site5720],7.87 ± 0.42
18,CATATGTATATGACTACACACAAGGGTGTACATATA [CACACA_site1164],7.93 ± 0.21
19,ACATGAAGATATTTTTGTCCGTACAAATTCATATGA [XGTACX_site1837],7.72 ± 0.35
20,AGTATATCAAAATACATACACACATTTGTATATACA [CACACA_site2697],7.71 ± 0.56
21,GTCCTCATCCACTATGCACACAAAAAAGAAATACAC [CACACA_site9131],9.825 ± 0.078
22,TTTTTTTTTTTTTTTTGTACACAAATTTATTGTCTA [XGTACX_site2680],8.13 ± 0.79

# From the supplement of paper PMC11417369
